Test results reported in the supplement of paper PMC11417369.
Some of the results follow.

These sequences were tested on PfHDP1 homeodomain (GST-tagged) (assay: gcPBM binding intensity (ln(normalized median fluorescence intensity)); higher = stronger DNA binding).
In short: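 DNA-binding domains from P. falciparum, fused to GST and produced in E. coli, were put on an Agilent 4 × 180k double-stranded probe array for 1 h in 1× PBS holding 1% milk, 0.2 mg/ml BSA, 0.5% salmon testes DNA and 0.03% Triton X-100. Probes were primer-extended, 36 bp long and drawn from intergenic genomic regions, with negative controls included. After Alexa488 anti-GST antibody detection and a 488 nm scan, binding intensity was set as the highest Masliner-normalised natural-log median intensity across replicate spots of either probe orientation.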

Sequence | gcPBM binding intensity (ln)
TGAACACCCACAAATACACACAAAAAAAATAAATAA [CACACA_site248] | 6.85
ATTTTTTTTCATATAACACACACACTAATATAATGT [CACACA_site9226] | 7.05
GAGTAAACATATATATGTACATAAAGTTAACATTGC [XGTACX_site2225] | 6.99
TTTTTATTTATATATATATATATATATTATATATAA [CACACA_negctrl_site1654] | 6.7
ATCTAAATAATATATATATATAATATTAATAATATA [CACACA_negctrl_site1620] | 6.36
ATATATTATATAATATGTACATAATAAAATTTAAAT [XGTACX_site1900] | 6.79
AATCAAAAATCAAACGCATGTAGTATAATAGATAAG [TGCATGCA_site753] | 6.71
CAAATATAAATATATACATGCATCTATCTATATAAA [TGCATGCA_site369] | 6.12
AAATTGTAGCACCAAGCATGCTAAAAGGACATATGA [TGCATGCA_site717] | 6.45
AAATAAATACACATATGTACATATTTTATTTTATTT [XGTACX_site2357] | 6.83
TAAAAAAAATACAAAAGTACACAAAATTATACGTTA [XGTACX_site4656] | 6.16
AATGGTATAATCAATACACACATAATATATATATTG [CACACA_site1658] | 6.35
TTAAGATATGTATATCGTACATGACATTAAAAATTT [XGTACX_site3352] | 6.02
ATTGGGTACAAATACACACACATATATATATTAATA [CACACA_site2376] | 6.8
TGTACCTTATTAATATATTTAACTCGCCTTATATAC [XGTACX_negctrl_site289] | 7
TCGTAAACATATTGAAAAATATAAAAAGGGGTAATA [CACACA_negctrl_site619] | 6.46
TTGTTAAAAGTATCCATTCTTTATTACTTTTGTTTA [XGTACX_negctrl_site532] | 6.36
TATTTATTGTGATACTTTTATTGTTTAATGATTAAA [CACACA_negctrl_site495] | 6.29
AAAAAAAAAAAAAGGTGTACAAGTATAATTACATAA [XGTACX_site534] | 6.31
TAGTATAAAATTATGTGTACACAAATATAACTTTTC [XGTACX_site5971] | 6.86
AAAAAAAAAAATATCACACACACATAAATATAAACC [CACACA_site2278] | 6.94
AAATTATATCAATGTTGTACATATTATTTTTTTCTC [XGTACX_site5948] | 6.28

Sequence | gcPBM binding intensity (ln)
AATTTCCTTTTTTAAAGTACACAAAAGTTCACTTTG [XGTACX_site4460] | 6.39
AAATTATATCATTTATTTTTTTATATTTTTTATATT [CACACA_negctrl_site685] | 6.03
TATAATTTATTAAGGGGTACATATATTTCATGATAA [XGTACX_site5141] | 6.85
AAGATTAAAAATTGCACACAAAAATATATTTTCTAT [CACACA_site1305] | 9.78
TCACATCTTATATACTGTACATTTCGAATATAAATT [XGTACX_site2508] | 6.6
TTTCTTTTACATATTTGTACATATATAAATTTATAT [XGTACX_site1787] | 7.27
TCTAACAACATGCGCACACACATGAATATTCATATT [CACACA_site1540] | 8.26
ATTAGATATGTAAACTAAAATTATATTCATGATAAT [TGCATGCA_negctrl_site182] | 6.1
ATATTTTTATTTTCTTTACACACCACATAATTTTTT [CACACA_site4060] | 7.05
AAAAAAAAAAAAATATGTACTTATTTTTATGTTAAA [XGTACX_site8802] | 6.2
TTCTTTAATACTTATTGTACAATATAATAATCACAA [XGTACX_site6364] | 7.07
TACTATATAAGTAAGGCATGCATGCCGATTTTTTTA [TGCATGCA_site100] | 5.92
TGAAACCGTTACATGTGTACATATGTTACACATAAT [XGTACX_site7250] | 6.61
TACTTAAAATATTTAACAAATAAATAAATAAATAAA [XGTACX_negctrl_site523] | 6.19
TAATTTAAACAAAAAAGTACAAATTTCTTTTTATTA [XGTACX_site5244] | 5.55
TTTTAAAAAAAATATAAAAAAAGAGGAGGGATGGTA [GTGCAC_negctrl_site35] | 6.61
AATTTTATTACTTTTACACACCTATATATTATTCAT [CACACA_site3273] | 6.91
ATTATTTTATTATAGTGTACTTTTTTAATCAAAGGA [XGTACX_site8921] | 6.23
TACTCATAATATTGATAATTAAAAAGATAAACTATT [XGTACX_negctrl_site299] | 6.09
ATTTTAATTACATATACACACAAAGGTTCATAACAA [CACACA_site9008] | 6.62
TATGTTTTTACGTGTGTGCACTTTGTAGAGATAAGT | 9.47
GATAACATAATATGTTGTACATAAAAATTTTTATCA [XGTACX_site1969] | 6.55

Sequence | gcPBM binding intensity (ln)
ATCAATTTAATTTATTGTACTTGTTTGTTTTTTTAT [XGTACX_site7544] | 6.25
ATAAAGATATGACACACACACATATTATAGATATAT [CACACA_site7434] | 6.69
AACTTATTTAAATTCACACATATATAAAATACTTAT [CACACA_site4394] | 6.57
ACATATGACTATAATACACACTTGTATTATTAATAT [CACACA_site6951] | 6.41
CATTATCATGTTTTTTGTACTCATAATAAAAAGCAG [XGTACX_site2056] | 6.49
CAAGGAACCGGACACACACACATAAATGTATTTATA [CACACA_site4574] | 6.45
AAAAATGAATTATTTTGTACATATATATATATATAT [XGTACX_site3410] | 9.34
AATAATTGTTAAAGTTGTACTATACGTATATAAGAA [XGTACX_site1432] | 6.94
TATATATAGAAACACACACACACCAAAGCGTAGCGC [CACACA_site62] | 6.63
ATTTACAAAAGGAAAGTGCAAACATGTGATTAAACA [CACACA_negctrl_site714] | 8.57
GCCAAAAGGATATGCACACACACACCCATATATATA [CACACA_site2198] | 9.58
AAAGGATATAGACACACACACACATATATATATATA [CACACA_site2200] | 9.24
ATCATTTTTAAAGGAACACACAAAAAAAATTAGAAT [CACACA_site1370] | 6.83
GTTCAAAATATGAACACACACATATAGATTTATATA [CACACA_site7054] | 6.43
CATATACATCCACATACACACATACACCCATACACA [CACACA_site5038] | 7.3
TGAAAAGTAAAATACACACACATAATATAATTTATA [CACACA_site1989] | 6.7
ATTATTTTTTTTGTTACACACATGACTTATTTTTAT [CACACA_site3228] | 6.99
TTAATTATAAGAAAAAGTACTCATTACATTATAGAA [XGTACX_site678] | 6.12
ATATAAATATTCCACACACACACAAAAAAAAAAAAA [CACACA_site7678] | 6.44
TAGTCGTTTTTTTAATGTACTCACGCATAATATAAT [XGTACX_site6499] | 6.55
AAAATATGTATGTAAAGTACTAATATACAAATTTTT [XGTACX_site5186] | 6.23
TATTTTTATATATGACGTACTCTACAATTATTAATG [XGTACX_site5818] | 6.54

Sequence | gcPBM binding intensity (ln)
TTTTTTTTTTTTGATGCACACACCTGAACGAGTTAA [CACACA_site317] | 7.95
TATATGAACTTATATACACACCATTTTTGTAAATCT [CACACA_site4547] | 6.53
TATAATATATTATATACACACATTATGAAATCCACA [CACACA_site1330] | 6.86
AACACGCGCAGACACACACACACACCCACATATATA [CACACA_site2205] | 6.95
ATTTTGATGCATGGGTTGCACTAACTTTTGCCCAGA | 8.83
AAACAATACTGATATTGTACATAATAAAAAAAAATA [XGTACX_site3330] | 6.46
ATAAATATATTTTATAGTACATAAATATCAAAAAAA [XGTACX_site2334] | 6.3
AGTATACAGATATATACACACATATTTATATTTATA [CACACA_site6394] | 6.44
CATACATACCTATATACACACATATAAAATAATATA [CACACA_site7290] | 6.97
TGTTATTATTTGTACACACACATATATATCCTTGTT [CACACA_site3616] | 6.98
GGCAACATTTGAAACACACACACATACAAACAAACA [CACACA_site3307] | 7.2
TCTATATGTTGATTCACACATAAAGAATAAATAAAA [CACACA_site6017] | 6.19
AAAAAAAATTATATATGTACTTATTAATCCTTTTAT [XGTACX_site1387] | 6.11
TATAATAATAATAATAATAATAATAATAATAATAAT [CACACA_negctrl_site905] | 6.89
CGCATAAAGACAAGAACACACATATAGATTGTAGTA [CACACA_site3693] | 6.15
AAGATGATAAAATATGTACACACAGTTTATACATTT [CACACA_site9341] | 6.03
TTATATATTAAGAAATGTACGAAAAAAAAAATTATA [XGTACX_site3893] | 6.4
GAAATAAAAGATGGTTGTACACCGTTTTCTCATATA [XGTACX_site5368] | 6.33
TACATATATGATAAAAGTACATATAAATATACATAA [XGTACX_site3804] | 6.18
TATATGAATAAACATTGTACGTAAATATTAACTATC [XGTACX_site543] | 6.71
ACATTTTAAATACGATGTACTTGAGTTTTTTTTAAA [XGTACX_site5833] | 6.3
AATTATTTATTGAGAGTGCAACAAATTATTTCAAAT [GTGCAC_site9461] | 7.66
